# Assay results as given in PubChem BioAssay AID485297 (National Center for Advancing Translational Sciences (NCATS), 2010).
# The campaign covered roughly 320,000 compounds. About 9,100 (2.8%) were called active. The inconclusive results got no clear call from the source; some entries with a clear call stand among them for comparison. Calls follow the shape of the dose curve; as a rule, active = well fitted activation curve with a large enough effect; inconclusive = small, poorly fitted or top-dose-only effect; inactive = no such curve, though single readings can be large or run the other way. Potencies of inconclusive entries are left out as doubtful fits.
# Test: qHTS Assay for Rab9 Promoter Activators; also: nearly all actives have a fitted effect of over 60% in size; as to activation, negative = inhibition: % of control where 0% means no effect
# Conditions: Huh7 Rab9 promoter-luciferase reporter, luminescence, 24 h; series mostly up to 9.22 µM
# Summary of the method: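 Steps: seed 1500 Huh7 Rab9-luc cells per well, rest 2 h at 37 °C; add compound in DMSO; incubate 24 h; add luciferase reagent, 10 min ambient; read luminescence.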
# Potency is read from the fitted curve at half-maximal effect; tags tell the direction and shape of the fitted curve.
Compound,Potency,"activation, negative = inhibition"
CSc1n[nH]c(NCc2ccc(C)cc2)n1,"inconclusive [activator, partial curve]",–
O=[N+]([O-])c1ccccc1OCCCOc1cccc2cccnc12,"inconclusive [activator, single point]",–
COC(=O)c1sc(NC(=S)NC(=O)c2cccc(C)c2)nc1C,"inconclusive [activator, partial curve]",–
CC(C)c1ccc(-n2cnn(-c3ncccc3[N+](=O)[O-])c2=O)cc1,active: 0.891 µM,–
CCCOc1ccc(CNC(=O)Cn2ncc3ccccc32)cc1,"inconclusive [activator, partial curve]",–
COc1ccc(-n2nc(C(=O)NCC(=O)N3CCC(C)CC3)c3ccccc3c2=O)cc1,"inconclusive [activator, partial curve]",–
C=CCc1cc(Cl)ccc1OCCN1CC(C)OC(C)C1 (centres undefined),inactive,–
C/C(=N/Nc1ccccc1C(=O)O)c1cccs1,active: 3.55 µM,–
CCSc1nnc(NC(=O)c2cc(C)oc2C)s1,"inconclusive [activator, single point]",–
Nc1ccc2nc(SCc3cccc(F)c3)sc2c1,active: 4.47 µM,–
NC(=O)c1ccc(F)cc1,inactive,–
CC(C)OC(=O)CSc1nc(N)c(C#N)cc1C#N,"inconclusive [activator, single point]",–
COc1ccc2[nH]c(C(=O)Nc3ccc4c(c3)OCO4)cc2c1,active: 2.82 µM,–
COc1ccc(/C=C2/SC(=O)N(CCNC(=O)CC(NC(C)=O)c3ccccc3)C2=O)cc1 (centres undefined),"inconclusive [activator, single point]",–
CN(C)CCCn1c2c(c(SCC(=O)Nc3nccs3)nc1=O)CCC2,inactive,–
Cc1nc(NC(=O)c2cccs2)ccc1Br,active: 3.55 µM,–
CCCc1cc(=O)n2c([nH]c3ccccc32)c1C#N,"inconclusive [activator, single point]",–
COc1ccc(NC(=O)CN(C)C(=O)c2cc3c(s2)CCC(C)C3)cc1 (centres undefined),inactive,–
CCC(C)N(C)C(=O)c1cc2ccccc2c(-c2ccccc2Cl)n1 (centres undefined),inactive,–
Cc1nn(-c2nnc(NCc3ccccc3)nn2)c(C)c1Br,"inconclusive [activator, single point]",–
O=C(CSC1=NCCN1)C1COc2ccccc2O1 (centres undefined),"inconclusive [activator, single point]",–
CN(C)c1ccc(/C=C2\SC(=S)N(Nc3ncc(C(F)(F)F)cc3Cl)C2=O)cc1,inactive,–
COc1ccc(S(=O)(=O)N2CCOC2CNC(=O)C(=O)NCc2cccnc2)cc1C (centres undefined),inactive,–
CC1CCCCC1NC(=O)CO/N=C/c1ccccc1OC(F)F (centres undefined),inactive,–
COc1cc2c(cc1OC)C(=S)NC1(CCCC1)C2,"inconclusive [activator, single point]",–
COC(=O)c1ccc2c(=O)n(CC3CCCO3)c(SCC(=O)Nc3ccccc3Cl)nc2c1 (centres undefined),"inconclusive [activator, single point]",–
C/C(=N\O)c1sc(-c2ccccc2)nc1C,active: 3.16 µM,–

Compound,Potency,"activation, negative = inhibition"
Cc1ccc(C(C(=O)NC2CCCCC2)N(Cc2cccnc2)C(=O)C2COc3ccccc3O2)o1 (centres undefined),active: 1.26 µM,–
Cc1ccc(NC(=O)c2cnn(-c3ccccc3)c2C)cc1,active: 0.398 µM,–
COc1cccc(CNC(=O)C(CC(C)C)NC(=O)c2ccccc2C)c1 (centres undefined),inactive,–
CCc1ccc2oc(C(=O)Nc3nonc3C)c(C)c2c1,active: 0.631 µM,–
C=CCc1ccc(OCC(O)COCC)c(OC)c1 (centres undefined),"inconclusive [activator, single point]",–
O=C(/C=C/c1cccs1)NC(=S)Nc1ccccc1,"inconclusive [activator, single point]",–
Cc1cnc(NC(=O)C2CCC(C(C)(C)C)CC2)s1 (centres undefined),"inconclusive [activator, single point]",–
Cc1ccc(S(=O)(=O)NNC(=O)c2cnn(-c3ccccc3)c2-n2cccc2)cc1,inactive,–
Cc1cc(C(=O)COC(=O)c2ccncc2)c(C)n1Cc1ccco1,"inconclusive [activator, partial curve]",–
CSc1ccc(S(=O)(=O)Nc2ccc3c(c2)NC(=O)CC3)cc1,inactive,–
COc1ccc(N2C(=O)N(Cc3ccc(C)cc3)c3ccccc3S2(=O)=O)cc1,inactive,–
Cc1ccc(C(=O)Nc2ccc(N3CCOCC3)cc2)cc1,active: 3.98 µM,–
Cc1cc(C(=O)Nc2ccc3c(c2)OCCO3)co1,active: 4.47 µM,–
O=C(Nc1nnc(C2CC2)s1)c1ccc(Cl)nc1,"inconclusive [activator, single point]",–
CCOC(=O)/C(C#N)=C\c1cc(C)n(-c2ccccc2)c1C,active: 1.78 µM,–
COc1ccc(Nc2ccnc(Nc3ccc(OC)cc3)n2)cc1,"inconclusive [activator, partial curve]",–
CCCCNC(=S)NNC(=O)c1csc(C(C)C)c1,"inconclusive [activator, single point]",–
COC(=O)Cn1nnc2c(cnn2-c2ccccc2)c1=O,inactive,–
CCOC(=O)Cc1csc(NC(=O)c2cnc3sc(C)cn3c2=O)n1,"inconclusive [activator, partial curve]",–
NCCOc1ccccc1-c1ccccc1,active: 4.47 µM,–
COc1ccc2[nH]cc(CCNC(=O)CS(=O)(=O)Cc3ccccc3)c2c1,inactive,–
Cc1cccc(C(=O)Nc2ccc(O)cc2)c1,"inconclusive [activator, partial curve]",–
c1ccc(-c2csc(NC3=NCCCCC3)n2)cc1,"inconclusive [activator, single point]",–
COc1cc(OC)cc(C(=O)NC(C(=O)Nc2ccc3c(c2)CCC3)C(C)C)c1 (centres undefined),inactive,–
Cc1cc(/C=C(/C#N)c2cccc(Cl)c2)c(C)n1C,"inconclusive [activator, single point]",–
O=C(Nc1ccc2oc(-c3ccccc3Cl)nc2c1)c1cncc(Br)c1,"inconclusive [activator, partial curve]",–
Cc1nc2cc(NC(=O)N3CCC(c4ccccc4)C3)ccc2n1C (centres undefined),"inconclusive [activator, partial curve]",–

Compound,Potency,"activation, negative = inhibition"
COc1cccc(C=O)c1OCCCOc1cccc2cccnc12,active: 4.47 µM,–
N#Cc1c(NC(=O)/C=C/C(=O)O)sc2c1CCN(Cc1ccccc1)C2,inactive,–
COc1cccc(Nc2ncnc3c2cnn3-c2cccc(C)c2)c1,"inconclusive [activator, single point]",–
N#Cc1cc2c(nc1SCC(=O)Nc1sc3c(c1C#N)CCC3)CCCCC2,"inconclusive [activator, single point]",–
CCC(C)c1ccccc1N1CC(C(=O)N2CCN(S(=O)(=O)c3ccccc3Br)CC2)CC1=O (centres undefined),inactive,–
C/C(=N\NC(=O)c1c[nH]c2ccccc12)c1ccccn1,"inconclusive [activator, partial curve]",–
O=c1[nH]c(-c2ccccc2)nnc1-c1ccccc1,"inconclusive [activator, partial curve, poor fit]",–
COCc1cc(C)nc(SCC(=O)Nc2ccc3c(c2)OCCO3)c1C#N,"inconclusive [activator, partial curve]",–
O=C(CSc1n[nH]c(=O)n1C1CC1)c1ccc2c(c1)OCCO2,"inconclusive [activator, partial curve, poor fit]",–
O=C(CSc1ncnc2sc3c(c12)CCCC3)c1ccco1,"inconclusive [activator, partial curve]",–
O=C(OCC(=O)N1CCOCC1)c1cccc(F)c1,"inconclusive [activator, partial curve]",–
O=C(Nc1ccc(SC(F)F)cc1)c1ccc(F)cc1,active: 1.26 µM,–
N/C(=N\OC(=O)c1ccc2c(c1)OCO2)c1ccc(Cl)cc1,"inconclusive [activator, single point]",–
Cc1ccc(C(=O)O)cc1NC(=O)Nc1ccc2c(c1)OCO2,inactive,–
COc1cc(NC(=O)c2cccs2)ccc1NC(=O)c1ccco1,"inconclusive [activator, single point]",–
O=c1c2cnn(-c3ccccc3)c2nc(-c2ccco2)n1-c1ccccc1,–,inactive: -2.98% [at 1.84 µM]
Cc1cc(C(=O)CSc2nnc(N)s2)c(C)n1C1CC1,"inconclusive [activator, partial curve]",–
O=C(COC(=O)c1ccccc1NC(=O)C1CC1)c1ccc2c(c1)OCCO2,"inconclusive [activator, single point]",–
CCN(CCO)c1ccc(N=Nc2cc(C)[nH]n2)cc1,"inconclusive [activator, full curve, poor fit]",–
Cc1cccc(NC(=O)c2ccc(-c3ccccc3[N+](=O)[O-])o2)c1,"inconclusive [activator, single point]",–
CCOC(=O)C1=NN(c2ccc(Cl)cc2)C(=O)C1,"inconclusive [activator, single point]",–
CC(C)(C)C(=O)Nc1sc(-c2ccccc2)cc1C(=O)O,active: 3.16 µM,–
Cc1c(C(N)=O)sc2nc(-c3ccccc3)cn12,"inconclusive [activator, single point]",–
COc1ccc(OC)c(/C=C/C(=O)c2ccc3c(c2)OCCO3)c1,inactive,–
O=C(CSc1ccc(Cl)cc1)Nc1cccc(-c2nc3ccccc3[nH]2)c1,"inconclusive [activator, partial curve]",–
